Data taken from PubChem BioAssay AID1468 (National Center for Advancing Translational Sciences (NCATS), 2008).
Screen size: about 280,000 compounds; about 1,100 (0.39%) were called active. Inconclusive results, whose numbers are uncertain, are shown with a selection of clear calls. Calls follow the shape of the dose curve; as a rule, active = well fitted inhibition curve with a large enough effect; inconclusive = small, poorly fitted or top-dose-only effect, or effect the other way; inactive = flat fitted curve, though single readings scatter. No potency is given beside an inconclusive call; the fits are too rough.

What follows are compounds tested against Microtubule-associated protein tau (Homo sapiens) (UniProt P10636) (assay: qHTS for Inhibitors of Tau Fibril Formation, Fluorescence Polarization). Conditions: K18 P301L tau heparin fibrillization, Alexa594 FP, 6 h; series mostly up to 57.7 µM; activity, negative = inhibition: at the top concentration.
Procedure, shortened: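 Quantitative HTS format: compounds meet 15 uM recombinant K18 P301L tau and Alexa 594-tau tracer in 100 mM sodium acetate pH 7; 20 uM heparin triggers fibrillization at 37 C over 6 hr; FP gives the signal.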
% is scaled to controls: 0 for no effect and ±100 for the full control effect; potency is read from the fitted curve at half-maximal effect; tags tell the direction and shape of the fitted curve.
Also: nearly all actives have a fitted effect of over 55% in size.

Chain of UniProt P10636 (P10636 whole entry, looked up): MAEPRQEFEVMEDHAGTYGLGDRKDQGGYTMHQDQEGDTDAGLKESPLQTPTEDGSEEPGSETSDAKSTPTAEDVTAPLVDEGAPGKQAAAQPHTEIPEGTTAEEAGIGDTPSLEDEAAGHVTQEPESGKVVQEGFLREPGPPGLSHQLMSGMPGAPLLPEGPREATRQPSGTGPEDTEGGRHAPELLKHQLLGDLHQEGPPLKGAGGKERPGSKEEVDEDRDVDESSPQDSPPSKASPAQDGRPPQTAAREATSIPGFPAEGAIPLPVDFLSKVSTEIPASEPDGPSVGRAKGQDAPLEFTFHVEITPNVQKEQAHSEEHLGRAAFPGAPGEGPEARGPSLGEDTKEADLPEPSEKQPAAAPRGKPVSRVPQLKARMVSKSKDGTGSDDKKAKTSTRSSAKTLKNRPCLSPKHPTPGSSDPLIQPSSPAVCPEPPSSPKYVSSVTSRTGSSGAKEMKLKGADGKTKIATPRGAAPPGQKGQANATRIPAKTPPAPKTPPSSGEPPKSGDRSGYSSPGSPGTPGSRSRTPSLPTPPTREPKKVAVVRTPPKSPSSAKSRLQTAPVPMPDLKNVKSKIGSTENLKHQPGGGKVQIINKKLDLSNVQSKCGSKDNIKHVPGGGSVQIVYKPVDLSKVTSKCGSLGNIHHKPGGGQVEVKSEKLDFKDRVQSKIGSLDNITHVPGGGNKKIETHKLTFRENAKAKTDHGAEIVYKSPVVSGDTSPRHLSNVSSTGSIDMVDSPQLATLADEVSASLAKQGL

Row | SMILES | Potency | activity, negative = inhibition
1 | Cc1ccc(-c2[nH]ncc2/C=C(\C#N)C(=O)NC2CCCCC2)cc1 | inconclusive [inhibitor, single point] | 
2 | CCCCC1=CC2=CC(=O)C(C)(OC(=O)CC)C(=O)C2=CN1C1CCCCC1 (stereo unspecified) | inactive | 
3 | O=C(c1ccc(N2CCN(C3CC(=O)N(Cc4cccs4)C3=O)CC2)cc1)c1cccnc1 (stereo unspecified) |  | inactive: 7.61%
4 | CCOC(=O)c1c(C)[nH]c(-c2csc(N)n2)c1C | inconclusive [inhibitor, single point] | 
5 | O=C1COc2ccc(-c3cc(-c4ccc(F)cc4)c4c(n3)-c3ccccc3OC4)cc2N1 | inconclusive [inhibitor, partial curve] | 
6 | Cc1ccc(NC(=O)COCc2cc(-c3cccs3)on2)cc1Cl | inconclusive [inhibitor, partial curve] | 
7 | C[C@H]1c2cccc(O)c2C(O)=C2C(=O)[C@]3(O)C(O)=C(C(N)=O)C(=O)[C@@H](N(C)C)[C@@H]3[C@@H](O)[C@@H]21 | inactive | 
8 | CCc1cc2c(NCC3CCCO3)ncnc2s1 (stereo unspecified) |  | inactive: 8.52%
9 | CC(C)Oc1ccc(-c2nc(NCC3CCCO3)c3ccccc3n2)cc1 (stereo unspecified) | inconclusive [inhibitor, single point] | 
10 | O=C(c1cccc(-n2cnnn2)c1)N1CCOCC1 |  | inactive: 0.907%
11 | COC(=O)c1ccc(C(=O)OCc2nc3cc4ccccc4cc3[nH]2)cc1 | inconclusive [inhibitor, partial curve] | 
12 | COC(=O)c1ccc(NC(=O)CN(c2cccc(C(F)(F)F)c2)S(C)(=O)=O)cc1 | inconclusive [inhibitor, partial curve] | 
13 | CC(C)=CCCC1(C)C=Cc2c(c(C)cc3c2[nH]c2cc(O)ccc23)O1 (stereo unspecified) | inconclusive [inhibitor, single point] | 
14 | COC(=O)N1C(C)=Cc2ccccc2C1CC(C)=O (stereo unspecified) | inactive | 
15 | CC(=O)Nc1ccc(NC(=O)CCc2c(C)nc3c(c(C)nn3-c3ccccc3)c2C)cc1 |  | inactive: -3.04%
16 | COC(=O)c1cccc(CN2C(=O)SC(Nc3ccc(Cl)cc3)C2=O)c1 (stereo unspecified) | inconclusive [inhibitor, partial curve] | 
17 | Cc1c(NC(=O)CSc2ccc(Cl)cc2)cccc1-c1nc2cc(Cl)ccc2o1 | inconclusive [inhibitor, single point] | 
18 | CCOC(=O)C(=CNNc1cccc(Cl)c1)C(=O)OCC | inconclusive [inhibitor, single point] | 
19 | Cc1ccc([N+](=O)[O-])c(OCCN2CCCCCC2)c1 |  | inactive: 2.95%
20 | COc1ccc(NC(=O)c2oc3ccccc3c2NC(=O)COc2ccc(F)cc2)c(OC)c1 | inconclusive [inhibitor, single point] | 
21 | O=S(=O)(c1ccc(Cl)c(C(F)(F)F)c1)N1CCN(c2ccccn2)CC1 | inconclusive [inhibitor, single point] | 
22 | CCS(=O)(=O)N1CCc2cc(C(=O)Nc3cc(OC)c(Cl)cc3OC)ccc21 | inconclusive [activator, single point] | 

Row | SMILES | Potency | activity, negative = inhibition
23 | COc1ccc(-c2nn(CC(=O)Nc3ccc(Cl)c(Cl)c3)c(=O)c3ccccc23)cc1 | inconclusive [inhibitor, partial curve] | 
24 | Cc1[nH]c2ccccc2c1/C=C/c1nc2ccccc2c(=O)n1-c1cccc([N+](=O)[O-])c1 | inconclusive [activator, partial curve, poor fit] | 
25 | N=S(=O)(O)Cc1noc2ccccc12 |  | inactive: -3.24%
26 | COc1ccc2[nH]cc(CCn3ccc(O)c(C/C=C/c4ccccc4)c3=O)c2c1 | inconclusive [activator, full curve, poor fit] | 
27 | CCN1c2ccccc2-c2nc(SCC(=O)Nc3cc(F)ccc3F)ncc2S1(=O)=O | inconclusive [inhibitor, partial curve] | 
28 | Cc1ccc(-c2nnc(Nc3cccc(Br)c3)c3ccccc23)cc1S(=O)(=O)NCC1CCCO1 (stereo unspecified) | inconclusive [inhibitor, partial curve, poor fit] | 
29 | O=C(N/N=C\c1ccc(CNS(=O)(=O)c2ccccc2)o1)C(=O)Nc1ccc(F)cc1 | inconclusive [inhibitor, partial curve, poor fit] | 
30 | Cc1ccc(Nc2nc(-c3c(C)nc4ccccn34)cs2)cc1 | inconclusive [inhibitor, single point] | 
31 | C=CCOc1ccc2c(c1)C(=NO)c1cc(OCC=C)ccc1-2 | inconclusive [inhibitor, partial curve, poor fit] | 
32 | CCOCCn1c(SCc2ccccc2)nc2c1c(=O)[nH]c(=O)n2C |  | inactive: -1.66%
33 | CN(C)c1cc[n+](CC(=O)Nc2ccc(OC(F)F)cc2)cc1 | inconclusive [inhibitor, single point] | 
34 | CCOC(=O)c1c(C)n(-c2ccccc2)c2ccc(OC(=O)c3cc(OC)cc(OC)c3)cc12 | inconclusive [inhibitor, single point] | 
35 | O=C(CCn1ccc2cc(S(=O)(=O)N3CCCC3)ccc21)NCc1ccccc1Cl |  | inactive: 1.7%
36 | CCOc1cc(/C=N/n2cnnc2)ccc1OCC(=O)Nc1ccccc1OC | inconclusive [inhibitor, single point] | 
37 | Cc1ccc(Nc2nc(-c3cccnc3)nc3ccccc23)cc1 | inconclusive [inhibitor, partial curve] | 
38 | O=C(NCCc1ccc(Cl)cc1)c1ccc2c(c1)N(Cc1cccc(Cl)c1)C(=O)c1ccccc1S2(=O)=O | inconclusive [inhibitor, partial curve, poor fit] | 
39 | CCc1nnc(NC(=O)CN2C(=O)/C(=C/c3cc(OC)c(OC)c(OC)c3)SC2=S)s1 | inconclusive [inhibitor, full curve, poor fit] | 
40 | Cc1cccc(CCNC(=O)c2c[nH]c3ccc(S(=O)(=O)Nc4ccccc4F)cc3c2=O)c1 | active: 7.08 µM | 
41 | O=C(CCCCCn1c(=O)[nH]c2ccccc2c1=O)NCc1ccc(Cl)cc1 | inconclusive [inhibitor, single point] | 
42 | CCC(=O)N1CCc2cc(Br)cc(S(=O)(=O)NCc3ccccc3)c21 | inconclusive [inhibitor, full curve, poor fit] | 
43 | Cc1cccc(NC(=O)Cn2cnc3c(cnn3-c3ccc(F)cc3)c2=O)c1C | inconclusive [inhibitor, single point] | 
44 | COc1cc(NC(=O)CCNC(=O)Cn2cnc3ccccc3c2=O)cc(OC)c1OC | inconclusive [inhibitor, single point] | 

Row | SMILES | Potency | activity, negative = inhibition
45 | O=c1c(C=NCC2CCCO2)c(-c2ccccc2)[nH]n1-c1ccc([N+](=O)[O-])cc1 (stereo unspecified) | inconclusive [inhibitor, partial curve] | 
46 | NC(=S)Cc1nc(-c2ccccc2)cs1 | inconclusive [inhibitor, partial curve] | 
47 | CN1C(CC(=O)Nc2ccc(Cl)cc2Cl)c2ccccc2CC1(C)C (stereo unspecified) |  | inactive: -8.84%
48 | CSc1ccc(CCNC(=O)C2CCN(c3ncnc4c3nc3n4CCCCC3)CC2)cc1 |  | inactive: -1.2%
49 | Cc1cccc(NC(=O)NC(=S)NC(=O)c2ccccc2)c1 | inconclusive [inhibitor, single point] | 
50 | CCOc1ccccc1NC(=O)c1cccc(NC(=O)CC(c2ccccc2)c2ccccc2)c1 | inconclusive [inhibitor, single point] | 
51 | C=CC1=C(C(=O)O)N2C(=O)C(NC(=O)Cc3ccccc3)C2SC1 (stereo unspecified) | inconclusive [inhibitor, single point] | 
52 | COC(=O)CCCC1=CC2=CC(=O)C(C)(OC(=O)c3cccs3)C(=O)C2=CN1Cc1ccc2c(c1)OCO2 (stereo unspecified) | inconclusive [inhibitor, partial curve] | inactive: 0.643% [at 11.6 µM]
53 | CCOC(=O)C1NN=C(C(=O)c2ccc(C)cc2)C1c1ccc(C)cc1 (stereo unspecified) | inconclusive [inhibitor, single point] | 
54 | Cn1c(=O)c(=O)n(C)c2cc(S(=O)(=O)Nc3ccc(Cl)c(C(F)(F)F)c3)ccc21 | inconclusive [inhibitor, single point] | 
55 | Cc1cc(NCCCN2CCOCC2)n2ncc(-c3ccccc3)c2n1 |  | inactive: 5.78%
56 | CC(C)(CO)NC(=S)NCc1ccco1 |  | inactive: -19.9%
57 | COc1cc(OC)c(NC(=O)Cn2cnc3nc4c(cc3c2=O)CCCC4)cc1Cl |  | inactive: 2.14%
58 | O=C(CSc1ccccn1)Nc1ccc2c(c1)C(=O)c1ccccc1C2=O |  | inactive: 10.4%
59 | Nc1[nH]n(-c2ccccc2)c(=O)c1N=Nc1ccc2c(c1)OCO2 | inconclusive [inhibitor, full curve, poor fit] | 
60 | O=C1C(=O)N(Cc2ccco2)C(c2cccc(Cl)c2)/C1=C(\O)c1ccc2c(c1)OCCO2 (stereo unspecified) |  | inactive: -1.36%
61 | Cc1ccc(NC(=O)Cn2cnc3sc(C(=O)NCc4ccco4)c(C)c3c2=O)cc1Cl | inconclusive [inhibitor, single point] | 
62 | CN(C)c1nc(=NCc2ccco2)ss1 | active: 14.1 µM | 
63 | O=C(CSc1ccc(F)cc1)Nc1ccc(Br)cc1 | inconclusive [inhibitor, single point] | 
64 | Cc1ccc(N=C2C(=S)N(c3ccc(C)cc3)C(=N)N2/N=C/c2ccc(Cl)cc2)cc1 |  | inactive: 4.06%
65 | CC(=O)Nc1ccc(S(=O)(=O)NC2(C(F)(F)F)C(=O)Nc3c2c(=O)n(C)c(=O)n3C)cc1 (stereo unspecified) | inconclusive [inhibitor, single point] | 
